Measured values from PubChem BioAssay AID1963576 (National Center for Advancing Translational Sciences (NCATS), 2024).
About 60 (0.1%) of roughly 46,000 compounds were called active. About 3% were inconclusive and are not listed. Calls follow the shape of the dose curve; as a rule, active = well fitted inhibition curve with a large enough effect; inconclusive = small, poorly fitted or top-dose-only effect; inactive = no such curve, though single readings can be large or run the other way. The list shows a part of the results.

Experiment: Primary qHTS assay for Inhibitors of ovarian cancer metastasis using an organotypic tumor microenvironment (TME) model. Also: nearly all actives have a fitted effect of over 65% in size.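 As to activity change, negative = inhibition: plate controls were DMSO wells for no effect and tomatine positive control wells for full effect.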
Conditions: SKOV3ip1-GFP adhesion/invasion on 3D omental model, fluorescence; series mostly up to 45.8 µM; activity change, negative = inhibition: at the top concentration
In short: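 Adhesion/invasion was scored as fixed GFP-labeled SKOV3ip1 cell counts (488/509 nm), normalized to DMSO and tomatine controls. Cancer cells in serum-free medium, with four compound doses (0.36-46 umol/L), sat 2 hr at RT then 16 hr at 37 C on a 48 hr fibroblast/mesothelial/ECM culture.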

outcome, inactive:
O=C(Nc1ccc(S(=O)(=O)N2CCC(c3nc4ccccc4s3)CC2)cc1)c1ccc(F)cc1
O=C(NCc1ccc2c(c1)CCN2C(=O)c1ccncc1)c1cccc(Cl)c1
COc1ccc(NC(=O)c2sc3nc(C)c(C(=O)Nc4ccc(C)cc4C)c(-c4ccc(Cl)cc4)c3c2N)cc1
CCOc1ccc(NC(=O)CN(C)S(=O)(=O)c2ccc3c(c2)c(=O)n(C)c(=O)n3C)cc1
COc1ccc(-c2nc3sc(CCNC(=O)C(=O)Nc4cc(C)cc(C)c4)c(C)n3n2)cc1
COc1ccc(N2CCN(C(=O)Cn3ncc4c3-c3cc(C)ccc3OC4)CC2)cc1
Cc1ccc(NC(=O)c2cccc(NC(=O)N3CCSc4ncccc43)c2)cc1Cl
O=C(NCCc1ccc(Cl)cc1)c1cccn1-c1nnc(N2CCCCC2)s1
CN(C1CCCCC1)S(=O)(=O)c1ccc(C(=O)Nc2sc3c(c2C(N)=O)CC(C)(C)NC3(C)C)cc1
CC(=O)c1cc(-c2ccccc2)n(CC(=O)NC2CCCCCC2)c1C
Cn1c(=O)c(=O)n(C)c2cc(S(=O)(=O)N3CCN(c4ccccc4F)CC3)ccc21
CNC(=O)c1ccc(Nc2nnc(-c3ccc(C)c(S(=O)(=O)NC(C)(C)C)c3)c3ccccc23)cc1
COc1ccc(CCNC(=O)Cc2c(C)c3cc(OC)c(OC)cc3oc2=O)cc1
O=C(NCC12CC3CC(CC(C3)C1)C2)c1cc2nc(-c3ccc(Cl)cc3)cc(C(F)(F)F)n2n1
COc1ccc(OC)c(NC(=O)Cn2c(=O)oc3cc(S(=O)(=O)NCc4ccccc4)ccc32)c1
CCOc1ccc2oc(=O)cc(CN3CCN(c4ccc(OC)cc4)CC3)c2c1
CCOC(=O)c1ccc(N2C(=O)c3n[nH]c(-c4cccs4)c3C2c2ccc(O)c(OC)c2)cc1 (centres undefined)
CCc1nc2ccc(C(=O)NCCc3ccc(SC)cc3)cc2nc1CC
Clc1cccc(-c2nnc(CN3CCN(c4ccccn4)CC3)o2)c1
CC(=O)OCc1cnc(C)c2oc(=O)c(C(=O)Nc3ccc(F)cc3C)cc12
COc1ccc(NC(=O)C2CCN(C(=O)c3sc4nc[nH]c(=O)c4c3C)CC2)c(OC)c1
COc1ccc2c(C)cc(SCC(=O)Nc3nsc(-c4ccc(C(C)(C)C)cc4)n3)nc2c1
CCC(Cc1ccccc1)NC(=O)c1csc2c1CCCCC2 (centres undefined)
COc1ccccc1NC(=O)C1=C(C)Nc2ncnn2C1c1ccc[nH]1 (centres undefined)
COc1ccc(CNC(=O)CN2CCSc3ccccc32)c(OC)c1
CCOc1ccc(S(=O)(=O)n2nc(C)c(S(=O)(=O)N3CCCCCC3)c2C)cc1
Cc1ccc(-n2ncc3c(NCCc4ccccc4)ncnc32)cc1
Cc1c2cnn(-c3ccccc3)c(=O)c2c(C)n1CC(=O)NCc1ccc(Cl)cc1
COc1ccc(CCNC(=O)Cn2c(C)c3cnn(-c4ccccc4)c(=O)c3c2C)cc1OC
CCn1cc2nc(SCc3cccc(C(F)(F)F)c3)n(CCc3ccccc3)c(=O)c2n1
CC1=C(C(N)=O)C(c2ccc(C(C)C)cc2)n2nc(SCc3ccccc3F)nc2N1 (centres undefined)

Activity change, negative = inhibition, inactive:
Cc1oc(-c2ccccc2F)nc1CS(=O)(=O)CC(=O)N1CCN(c2cccc(C(F)(F)F)c2)CC1 -2.15%
N#Cc1ccc(C(=O)Nc2ccc(Cl)c(-c3nc4cc(Cl)ccc4o3)c2)c(F)c1 -16.4%
NNC(=O)c1ccncc1 10.5%
COc1ccc(OC)c(NC(=O)CSC2=Nc3ccccc3C3=NC(CC(=O)NCc4ccco4)C(=O)N23)c1 (centres undefined) -1.57%
Cc1ccc(C(=O)NCC(c2cccs2)S(=O)(=O)c2cccs2)cc1C (centres undefined) 3.03%
COc1cc(OC)cc(C(=O)Nc2cc(-c3nc4ccccc4s3)ccc2OC)c1 -17.7%
CCN(C(=O)c1nn(-c2ccc(OC)c(Cl)c2)c(=O)c2c1c1ccccc1n2C)c1cc(OC)ccc1OC -0.504%
COc1cccc(-c2cc(C(F)(F)F)nc(-n3nc(C)c(Br)c3C)n2)c1 8.71%
Nc1nc(N)c(S(=O)(=O)c2ccccc2)c(Nc2ccc(Br)cc2)n1 -1.02%
O=C(NCC(c1ccc(Cl)cc1)N1CCCCC1)c1ccc(F)cc1 (centres undefined) 3.55%
COc1ccc(C(=O)NCC(c2cccnc2)N2CCN(c3ccc(F)cc3)CC2)cc1 (centres undefined) 1.33%
CCOc1cccc2cc(-c3nc4sc(C(=O)Nc5ccc(C)cc5)c(C)c4c(=O)[nH]3)c(=O)oc12 30.6%
Cc1cccc(NC(=O)C(=O)c2cc(C)n(-c3ccccc3)c2C)c1C -19.6%
O=C(CSc1ccc2nc(-c3ccccc3)cn2n1)Nc1ccccc1C(F)(F)F 16.1%
Cc1cccc(NC(=O)Cn2nc(-c3ccc(Cl)cc3)c3ccccc3c2=O)c1 -3.71%
COc1ccccc1CNC(=O)c1cccn1-c1nnc(N2CCCC2)s1 -27.3%
Cc1ccc(-n2c(SCc3ccccc3F)nc3[nH]ncc3c2=O)cc1C 4.43%
Cc1cccc(NC(=O)CSc2nc3c(c(=O)[nH]2)CN(Cc2ccc4c(c2)OCO4)CC3)c1C -2.04%
O=C(Cn1c(=O)n(Cc2cccs2)c(=O)c2cccnc21)Nc1ccccc1F 5.11%
Cc1cc(O)c(C(c2cccc(F)c2)N2CCC(C)CC2)c(=O)n1Cc1ccco1 (centres undefined) -6.7%
CCc1nc(-c2cc(S(=O)(=O)N3CCN(c4ccc(F)cc4)CC3)ccc2OC)no1 -5.98%
COc1ccc(N2CCN(C(=O)CSCc3nc(-c4ccccc4Cl)oc3C)CC2)cc1 -1.23%
O=C(Nc1cccc(C(F)(F)F)c1)c1noc2c1CCc1ccccc1-2 -13.1%
O=C(NCc1cccc(F)c1)c1ccc(CS(=O)c2ccccc2Cl)o1 (centres undefined) -4.89%
CCOC(=O)N1CCc2c(sc3c2c(=O)n(Cc2ccccc2)c(=O)n3CC(=O)Nc2c(C)cccc2C)C1 -5.49%
COc1ccccc1NC(=O)CCN1CCC(C(N)=O)CC1 21.2%
CCc1ccc(-n2c(=O)c3cccnc3n2CC(=O)NCc2ccc(F)cc2)cc1 -5.03%
Cc1ccc(C(=O)Nc2ccc(-n3c(C)nc4ccccc4c3=O)cc2)cc1[N+](=O)[O-] -30.4%
Cc1cccc(C)c1OCC(=O)Nc1nonc1-c1ccc(Br)cc1 3.34%
CCN(C(=O)c1cc2c(s1)-c1c(C)cccc1OC2)c1cc(C)ccc1C 2.52%
CCN(C(=O)CCS(=O)(=O)c1cccc2nsnc12)c1cccc(C)c1 -21.9%
O=C(Nc1nc2n(n1)C(c1ccc(F)cc1)C=C(c1ccc(Cl)cc1)N2)c1ccco1 (centres undefined) -7.13%
COc1ccc(-n2c(=O)c3ccccc3n(Cc3ccc(F)cc3Cl)c2=O)cc1OC 29.7%
Cc1cc(S(=O)(=O)Nc2cc3c(cc2N2CCOCC2)n(C)c(=O)n3C)ccc1F 0.551%
COc1ccc(NC(=O)C(CC(C)C)NC(=O)C2CCCCC2)c(OC)c1 (centres undefined) -3.57%
COc1ccc(C2CC(=O)c3cc(-c4nc(-c5ccc(Cl)cc5)cs4)c(=O)[nH]c3C2)cc1 (centres undefined) 10.2%
CC(=O)Nc1nonc1-c1nnc(SCC(=O)Nc2ccccc2Cl)n1C 7.91%
COc1cc(NC(=O)c2cc(-c3ccccc3O)no2)cc(OC)c1OC -37%
CCOc1ccc(CNC(=O)C2CCN(C3=NS(=O)(=O)C(c4ccc(C)cc4)=C3CC)CC2)cc1 -6.32%
CCN(CC)S(=O)(=O)c1ccc2c(c1)N(CC(=O)N1CCN(c3cc(Cl)ccc3C)CC1)C(=O)CO2 -1.23%
CCc1ccccc1N1CC(c2nnc(NC(=O)c3ccco3)s2)CC1=O (centres undefined) 7.66%
Cc1cccc(N2CCN(c3nc4ccccc4c4nc(-c5ccccc5)nn34)CC2)c1C -0.114%
COc1cc(NC(=O)CCCSc2nc(-c3ccco3)cc(C(F)(F)F)n2)cc(OC)c1OC -9.12%
COc1cccc(Cn2c(SCc3ccc(C(=O)N4CCC(C)CC4)cc3)nc3ccncc32)c1 -2.77%
CCN(c1ccccc1)S(=O)(=O)c1cc(C(=O)Nc2ccc(Br)cc2)ccc1F -43.3%
O=C(Cn1c(=O)oc2ccccc21)NCc1ccc(Cl)cc1 17.4%
CCOC(=O)c1c(Nc2ccccc2)nnc(-c2ccccc2)c1-c1ccccc1 -10.4%
CCN(CC)C(=O)Cn1c(SCC(=O)Nc2ccc(C)c(C)c2)nc2ccccc21 -2.1%
COc1ccc2oc(-c3ccc(C)c(NC(=O)c4ccc(N5CCCCC5)c([N+](=O)[O-])c4)c3)nc2c1 -9.54%
Cc1ccc(NC(=O)CN2C(=O)C(c3ccccc3)=NC2(C)C)cc1C -5.1%
COc1cccc(C(=O)Nc2ccc3c(c2)CCCN3C(=O)c2cccs2)c1OC 17.4%
Cc1ccccc1C(=O)Nc1ccccc1C(=O)OCc1cc(=O)n2nc(C3CC3)sc2n1 1.11%
CN1CCN(c2ncc3c(n2)CCN(Cc2ccccc2Cl)C3)CC1 4.87%
Cc1cc2oc(C(=O)N(Cc3ccccc3)C3CCS(=O)(=O)C3)cc(=O)c2cc1C (centres undefined) 0.424%
CCOc1ccc(Nc2c(S(=O)(=O)c3ccc(C)cc3)cnc3ccccc23)cc1 -20.7%
CCc1ccc(NC(=O)CSc2nnc(-c3nonc3NC(C)=O)n2-c2ccccc2)cc1 -2.07%
Cc1cc(-c2nc3ncccc3o2)ccc1NC(=O)COc1ccc(C(C)(C)C)cc1 1.23%
Cc1ccc(S(=O)(=O)OCC(=O)Nc2ccc(C(=O)O)c(O)c2)cc1 12.6%
Cc1c(CCNC(=O)c2ccc(C(F)(F)F)cc2)sc2nc(-c3ccc(F)cc3)nn12 7.46%
COc1ccc(-c2cc(C)no2)cc1S(=O)(=O)Nc1cccc(C(F)(F)F)c1 -0.409%
CCOc1ccc(NC(=O)Cn2cnc3nc4c(cc3c2=O)CCCC4)cc1 1.35%
Fc1ccc(-n2ncc3c(Nc4ccc(Oc5ccc(Cl)cc5)cc4)ncnc32)cc1 2.02%
COc1ccc(-c2[nH]c(-c3ccc(F)cc3)nc2SCC(=O)Nc2ccc(OC)c(OC)c2)cc1 -2.57%
